As a reminder, the % Inhibition is the drop in the measured response relative to a control, in per cent.

About 540 (0.36%) of roughly 150,000 compounds showed an effect of 50% or more. Some of the results follow.

The experiment relates to Plasmodium falciparum. Briefly: Primary screen in NF54 nanoGlo assay, in single point, at 2uM, 72h; a lower Z score goes with more inhibition. The format is functional, Erythrocyte. Particulars: timepoint 72 hour.
Consider `O=C1CCCc2nn(-c3ccccc3)c(-c3ccccc3O)c21`, for which the “% Inhibition” value is -20% and the Z score was found to be 1.85.
With `CCCCNC(=O)c1ccc(CN2C(=O)CCn3nccc32)cc1`, the “% Inhibition” value was found to be 18% and the Z score is given as -2.08.
As for `CCc1nn(C)cc1NC1CCCC1NC(=O)OC(C)(C)C` (stereo not given), the “% Inhibition” value is 8% and the Z score is recorded as -1.08.
On the same counts, the results for `CCOCCCNC(=O)c1nnn(-c2ccc3ncccc3c2)c1C` are -12% and 1.67.
For `CC(C)CCNC(=O)c1nn(Cc2ccc(F)cc2)c2c1COCC2`, in that order: -22% and 2.78.
For `COC1CCCC1NC(=O)c1cncnc1-c1ccccc1` (stereo not given), in that order: -19% and 1.9.
For the compound `CCO[C@H]1COCC[C@@H]1NC(=O)c1c[nH]c(=O)c(Cl)c1`, the “% Inhibition” value is on record as -3% and the Z score turned out to be 0.5.
On the same counts, the results for `CC(C)Cn1cncc1Cn1cc([C@H]2CCOC2)nn1` are 5% and -0.97.
As to `C[C@H]1CCCCN1CC(=O)Nc1ccc2c(c1)OCO2`, the “% Inhibition” value is -3% and the Z score stood at 0.63.
For `COc1ccc(-c2cc(C(=O)N3CCCCCCC3)[nH]n2)cc1`, in that order: -18% and 2.29.
On the same counts, the results for `Cc1cnn(CC(=O)N2CCCN(C(=O)Cc3cccc(F)c3)CC2)c1` are -7% and 0.93.
On the same counts, the results for `CN(C)c1ccc(-c2cnc3cccnn23)cn1` are -7% and 1.25.
Take `O=C(NC1CCN(C2CC2)CC1)c1cc2ccccc2[nH]1`: the “% Inhibition” value was -7% and the Z score is 1.05.
For `O=S(=O)(Cc1cccc(NCc2cnc3ccccn23)c1)C1CCCCC1`, in that order: -5% and 0.71.
On the same counts, the results for `CCC1CC(NS(=O)(=O)C2(C)CC2)CCO1` (stereo not given) are 8% and -0.92.
In the case of `Cc1cc(C(=O)Nc2nccn2CC(C)C)oc1Br`, the “% Inhibition” value is listed as -5% and the Z score was determined as 0.91.
For `CC(C)(C)C(=O)NCC(c1ccco1)c1ccco1`, in that order: -13% and 1.93.
On the same counts, the results for `CCOCCNC(=O)c1coc(COc2ccc3c(c2)OCO3)n1` are -10% and 0.95.
On the same counts, the results for `O=C(Cn1ccc2ccccc2c1=O)N1CCOC2CCCCC21` (stereo not given) are -5% and 0.72.
For `O=C(C[C@H]1C(=O)Nc2ccccc2N1C(=O)c1ccccc1)Nc1ccccc1Cl`, the “% Inhibition” value is 27% and the Z score is reported as -3.06.
On the same counts, the results for `Cn1cc(-c2cc3n(n2)CCC(=O)N3CC(=O)N2CCN(c3ccccn3)CC2)c2ccccc21` are -4% and 0.7.
On the same counts, the results for `Cc1ccccc1[C@@H](C)CC(=O)NCCn1cnnc1C` are -1% and 0.07.
For `Fc1ccc(-c2ccco2)cc1NCc1cn2cccnc2n1`, in that order: -26% and 3.72.
Consider `Cc1cc(C#N)c(N(C)CCCCN2CCOCC2)nc1C`, for which the “% Inhibition” value was -13% and the Z score is 1.42.
Regarding `CCc1nc(C)cc(NCCc2ccnn2C)n1`, the “% Inhibition” value is recorded as -13% and the Z score worked out at 2.16.

(Values after ChEMBL document CHEMBL4888484, “Replenishing the malaria drug discovery pipeline: Screening and hit evaluation of the MMV Hit Generation Library 1 (HGL1) against asexual blood stage Plasmodium falciparum ,using a nano luciferase reporter read-out” (2022).)
